In PubChem BioAssay AID1030 (National Center for Advancing Translational Sciences (NCATS), 2008):
Values joined by “and” are separate entries in the source; they are usually repeats but may differ in a detail not shown here. Equal values may be shown once. Hit rate of the full screen: of about 220,000 compounds, about 16,000 (7.3%) were called active. This list was built around the results that the source calls inconclusive (neither active nor inactive); the mix of calls is not that of the screen. Calls follow the shape of the dose curve; as a rule, active = well fitted inhibition curve with a large enough effect (not every such curve was filed as active); inconclusive = small, poorly fitted or top-dose-only effect, or another doubt; inactive = no such curve, though single readings can be large or run the other way. Where the call is inconclusive, the potency comes from a doubtful curve fit.

The compounds below were run against Aldehyde dehydrogenase 1A1 (Homo sapiens) (UniProt P00352) (assay: qHTS Assay for Inhibitors of Aldehyde Dehydrogenase 1 (ALDH1A1)). Conditions: Purified ALDH1A1, NADH fluorescence, propionaldehyde substrate; series mostly up to 75.3 µM.
UniProt P00352, sequence (P00352 whole entry, looked up): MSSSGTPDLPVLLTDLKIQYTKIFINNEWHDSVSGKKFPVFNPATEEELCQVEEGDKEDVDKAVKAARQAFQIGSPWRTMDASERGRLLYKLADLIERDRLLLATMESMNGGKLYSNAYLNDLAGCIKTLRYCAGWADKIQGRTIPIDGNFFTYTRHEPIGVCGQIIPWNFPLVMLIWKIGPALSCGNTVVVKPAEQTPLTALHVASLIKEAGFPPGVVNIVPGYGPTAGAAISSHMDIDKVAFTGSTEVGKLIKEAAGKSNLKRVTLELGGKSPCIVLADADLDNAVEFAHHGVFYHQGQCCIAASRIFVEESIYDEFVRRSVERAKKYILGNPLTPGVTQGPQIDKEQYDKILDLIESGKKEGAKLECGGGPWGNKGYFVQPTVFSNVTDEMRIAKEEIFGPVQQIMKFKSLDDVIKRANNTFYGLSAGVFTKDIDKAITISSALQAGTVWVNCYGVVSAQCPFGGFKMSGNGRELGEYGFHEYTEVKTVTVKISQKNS

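For activity, negative = inhibition in this document: plate controls were no enzyme wells and a reference inhibitor.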
Potency is read from the fitted curve at half-maximal effect; tags tell the direction and shape of the fitted curve.

Potency, inconclusive:
COc1cc(NS(=O)(=O)c2ccc(NC(C)=O)cc2)nc(OC)n1 8.91 µM [inhibitor, single point]
CCCC(N)CCCCCC(=O)O (configuration not stated) 2 µM [inhibitor, partial curve]
CCN(CC)c1ccc(NC(=O)c2c(OC)cccc2OC)c(C)c1 39.8 µM [inhibitor, single point]
CCn1cc(C2C(C(=O)Nc3ccc(Br)cn3)=C(C)NC3=C2C(=O)CCC3)c(C)n1 (configuration not stated) 31.6 µM [inhibitor, partial curve]
CC1(C)Cc2c(c(N3CCOCC3)nc3sc(C(=O)N4CCCCC4)c(N)c23)CO1 39.8 µM [inhibitor, single point]
CN1/C(=C/C2CC(=O)NC2=O)C(C)(C)c2ccccc21 (configuration not stated) 28.2 µM [inhibitor, single point]
Cc1ccccc1OCCn1c(=O)sc2ccccc21 39.8 µM [inhibitor, single point]
O=c1nc2c(-c3ccccc3F)n[nH]n2c2ccccc12 31.6 µM [inhibitor, single point]
O=C(NC(Nc1nc2ccccc2s1)(C(F)(F)F)C(F)(F)F)c1ccccc1 39.8 µM [inhibitor, single point]
CCn1c(CSc2nc(C)cs2)nc2cc(S(=O)(=O)N(C)C)ccc21 20 µM [inhibitor, partial curve]
O=C(NC(=S)Nc1ccc(F)c([N+](=O)[O-])c1)c1ccccc1F 35.5 µM [inhibitor, single point]
CCOC(=O)c1nn(-c2ccc3c(c2)OCO3)cc1O 28.2 µM [inhibitor, partial curve]
Cc1sc(NC(=S)NC(=O)c2ccco2)c(C#N)c1C 2 µM [inhibitor, full curve]
CNc1nc(N/N=C/c2ccc([N+](=O)[O-])cc2)nc(Nc2ccccc2)n1 39.8 µM [inhibitor, single point]
CC(C)Cc1nc2oc3c(Cl)ncnc3c2c2c1CCC2 28.2 µM [inhibitor, partial curve]
CC(C)OC(=O)CC(=O)CSc1nc2c(cc1C#N)CCC2 35.5 µM [inhibitor, single point]
O=C(CSc1nc2c(cnn2-c2ccc(F)cc2)c(=O)[nH]1)N1CCCCC1 28.2 µM [inhibitor, single point]
O=C(c1ccc(Nc2cccc(C(F)(F)F)c2)nc1)N1CCCC1 14.1 µM [inhibitor, partial curve]
CCCCC1=CC2=C(c3ccco3)C(=O)C(C)(OC(=O)c3ccc(OC)cc3)C(=O)C2=CN1c1ccc(OC)cc1 (configuration not stated) 8.91 µM [inhibitor, single point]
CC(Cc1cccs1)NC(=S)Nc1ccccc1 (configuration not stated) 39.8 µM [inhibitor, partial curve, poor fit]
COCCn1c(N)c(N(Cc2ccccc2)C(=O)c2oc3ccccc3c2C)c(=O)[nH]c1=O 20 µM [inhibitor, partial curve]
CC(=O)N1CCc2cc(Br)cc(S(=O)(=O)CCC(=O)Nc3c(C)n(C)n(-c4ccccc4)c3=O)c21 9.46 µM [inhibitor, partial curve, poor fit]
COc1ccc(-c2cc(=O)c3cc(F)ccc3[nH]2)cc1 28.2 µM [inhibitor, single point] and 25.1 µM [inhibitor, partial curve]
COc1cc(C(=O)N2CCN(C(=O)c3ccccc3)CC2)cc(OC)c1OC 31.6 µM [inhibitor, single point]
COc1ccccc1C(=O)N/C(=C/c1ccc(Br)cc1)C(=O)N1CCCC1 25.1 µM [inhibitor, single point]
C=CCSc1nc(C)c(Cc2cccc3ccccc23)c(=O)[nH]1 1.26 µM [inhibitor, full curve]
COc1cc(O)c2c(=O)c3c(OC)c(O)ccc3oc2c1 22.4 µM [inhibitor, single point]
Cn1c(COc2ccccc2)nnc1SCCN1CCOCC1 39.8 µM [inhibitor, single point]
CSc1nsc(SC)c1C(=O)OCC(F)(F)F 39.8 µM [inhibitor, single point]
COc1ccccc1NC(=O)Nc1nnc(-c2ccco2)s1 39.8 µM [inhibitor, single point]
COc1ccccc1N(C(=O)c1snc(C(N)=O)c1N)C(C(=O)NCCC(C)C)c1ccco1 (configuration not stated) 35.5 µM [inhibitor, single point]

Potency, active:
O=C(Cn1cnc2c(oc3ccccc32)c1=O)N1CCCc2ccccc21 20 µM
O=C1CC(SCCO)C(=O)N1c1ccc(Oc2ccccc2)cc1 (configuration not stated) 14.1 µM
O=C(N/N=C/c1ccc(OCC(=O)N2CCCCC2)cc1)c1ccccc1 17.8 µM
NC(=S)NNc1c(F)c(F)c(F)c(F)c1F 8.91 µM
CCOc1ccc(Oc2c(/C=N/NC(N)=O)c(C)nn2-c2ccccc2)cc1 31.6 µM
COC(=O)C(Cc1c[nH]c2ccccc12)NC(=O)c1cc(-c2ccc(OC)c(OC)c2)oc1C (configuration not stated) 28.2 µM
c1ccc2c(c1)CC(N1CCN(c3cccc4c3OCCO4)CC1)C2 22.4 µM
CC(=O)Nc1ccc(S(=O)(=O)Nc2nc3ccccc3nc2N2CCCCCC2)cc1 7.08 µM
Cc1ccc2nc(C)c(C(=O)NN=C3CCCCCC3)n2c1 7.94 µM
COc1cccc(OCCn2cc(C(=O)c3ccco3)c3ccccc32)c1 22.4 µM
Cc1cccc(N2CCC(N3CCN(C4CCCCC4)C(CCO)C3)CC2)c1C (configuration not stated) 3.55 µM
COc1cc(C(=O)NC(=S)Nc2cccc(-c3cc4ccccc4oc3=O)c2)cc(OC)c1OC 14.1 µM
O=C1NC(=S)N/C1=C/c1cc([N+](=O)[O-])ccc1O 5.01 µM
O=C(CN1CCCN(S(=O)(=O)c2ccc(Br)cc2)CC1)Nc1ccc2c(c1)OCO2 11.2 µM

Potency, inactive:
COc1ccc(CCNC(=O)CSc2ccccn2)cc1OC
COc1cccc(CN2CCN(C(=S)NCc3ccc(Cl)cc3)CC2)c1
CC(C)c1nnc(NC(=O)c2ccc3c(c2)OCO3)s1
CCOC(=O)c1c(NC(=O)C2CC=CCC2C(=O)O)sc(C)c1CC (configuration not stated)
CC1CCc2cccc3c2N1c1cc(C#N)c(C#N)cc1O3 (configuration not stated)
CCCCCCOc1ccccc1C(N)=O
O=C(N/C(=C\c1ccc([N+](=O)[O-])cc1)C(=O)N1CCCCC1)c1ccccc1Br
CC1CCCN(S(=O)(=O)Cc2ccc(Cl)cc2)C1 (configuration not stated)
Cc1ccc(NC(=O)Cn2nc(C)c(S(=O)(=O)N(C)C)c2C)cc1C
CCOC(=O)C1=C(C)NC(=S)NC1C (configuration not stated)
COc1ccc(C)cc1NC(=O)c1ccccc1NS(=O)(=O)c1ccc(Cl)s1
O=C(CCc1n[nH]c(=O)[nH]c1=O)N/N=C/c1ccc(Br)o1
CNC(=O)c1[nH]cnc1C(=O)Nc1ccc(C)cc1
COC(=O)c1sc2ccccc2c1-n1cccc1C(=O)C(=O)Nc1ccccc1
CCN(CC(=O)Nc1ccc(N2CCOCC2)cc1)C(=O)c1ccc(C(F)(F)F)cc1
CCNC(=S)NCCN1CCCCC1
C[C@H]1C(=O)N(C)CCN1C(=O)c1ccccc1OC1CCN(S(C)(=O)=O)CC1
O=C(Cn1cccc1C(=O)c1ccccc1)NCc1ccccn1
CCOC(=O)C1(Cc2ccccc2)CCN(Cc2cn[nH]c2-c2ccccc2)CC1
O=C(COC(=O)C1Cc2ccccc2CN1C(=O)c1ccccc1Cl)Nc1ccc(N2CCOCC2)cc1 (configuration not stated)
Cc1cc(NC(=O)c2ccc(Br)c(S(=O)(=O)N3CCCC3)c2)no1
COc1ccc(CN(C)C(=S)Nc2ccc(Cl)cc2Cl)cc1
Cc1nn(C2CCS(=O)(=O)C2)c(Cl)c1/C=C/C(=O)OCC(N)=O (configuration not stated)
Cc1cc2nc(C)n(CCCNC(=O)Nc3ccc(F)cc3)c2cc1C
CCOC(=O)C1(Cc2ccccc2C(F)(F)F)CCN(C2CCN(C(C)=O)CC2)CC1
CS(=O)(=O)N1CCC2(CC1)CN(C(=O)Nc1cccc(C#N)c1)C2
Cc1ccnc(NS(=O)(=O)c2cc(C(F)(F)F)ccc2Cl)c1
CCn1c(C(C)NC(=O)c2cccs2)nc2ccccc21 (configuration not stated)
COC(=O)Cc1ccc(NC(=S)N2CCN(c3ccc(F)cc3)CC2)cc1
O=C(O)c1cccnc1SC1CC(=O)N(Cc2ccccc2)C1=O (configuration not stated)
CN(C)Cc1cnc2ccc(Cl)cn12
O=C(/C=C/c1ccc(Cl)cc1)Nc1ccc(Br)cn1
COc1cc(CNc2cccc(C(=O)O)c2)cc(Br)c1OCC(=O)NC(C)(C)C
Cc1cccc(NC(=O)c2cc3ccccc3o2)c1
CC(C)(C)NC(=O)C(=O)NNC(=O)c1cccc([N+](=O)[O-])c1
COc1ccc(N2CCN(S(=O)(=O)c3ccc(OC)cc3)CC2)cc1

activity, negative = inhibition, inactive:
CC(=O)Nc1ccc(S(=O)(=O)N2CCc3nc(COc4ccccc4)c4c(c3C2)CO[C@@H](C)C4)cc1 8.79% [at 13.5 µM]
